Measured values reported in patent US20210230292A1 (DIATHEVA S R L, published 2021).

Molecular target: T1, human CD99ecd/GST (human, UniProt P14209 23-122)
T1 construct: Expressed in E. coli BL21(DE3), purified on Glutathione Sepharose; also called CD99ecd/GST antigen; recombinant CD99; not shown: glutathione-S-transferase as encoded by vector pGEX-2T (GE Healthcare); CD99ecd fused downstream of it through the BamHI
T1 sequence: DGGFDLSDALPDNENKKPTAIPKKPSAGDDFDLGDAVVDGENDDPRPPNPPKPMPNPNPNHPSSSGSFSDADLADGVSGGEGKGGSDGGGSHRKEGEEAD
Experiment: competitive ELISA (Rath 1988), CD99ecd/GST coated and soluble CD99ecd/GST as inhibitor
Protocol: The binding affinity, expressed as the dissociation constant (kd) of scFv C7, C7dAbd, C7IgG4 and C7IgG1 for CD99, was determined by analysing the saturation of binding at equilibrium with a competitive ELISA assay according to the procedure described in Rath S 1988 with small variations. […] For this purpose, 96-well plates were sensitized by distributing 500 ng/well of CD99ecd/GST diluted in 0.5M carbonate buffer, pH 9.6, and incubating ON at 4° C. After 3 washes with PBS supplemented with 0.05% V/V of Tween20, the plates were blocked with a 1% W/V solution of BSA in PBS (PBSB), pH 7.4, for 60 min. at 37° C. After washing, the plates were incubated for 1 hour at 37° C. with serial dilutions of C7 (from 200 μg/ml to 0.03 μg/ml in triplicate) diluted in PBSB and dispensed (100 μl/well). The plates were incubated at 37° C. for 90 minutes. After washing a dilution of polyclonal anti-scFv diluted 1:500 in PBSB was dispensed, 100 μl/well, and incubated for 60 minutes at 37° C. […]
A competitive ELISA assay was then set up. […] The scFvC7 and C7 diabody signal was determined by dispensing, in a first step, a polyclonal anti-scFv antibody generated in rabbits immunized with scFvC7 and diluted 1:500 v/v in PBSB and subsequently with an anti-rabbit HRP diluted 1:1000 v/v. […]

B1: C7 diabody (C7dAbd) (other)
scFv: [about 100 residues omitted here]SHKRFDYWGQGTLVTVSRGGGGSSELTQDPAVSVALGQTVRITCQGDSLRSYYASWYQQKPGQAPVLVIYGKNNRPSGIPDRFSGSSSGNTASLTITGAQAEDEADYYCNSSFPRTSSVVFGGGTKLTVLG
notes: Dimeric derivative of scFv C7 (bivalent scFv, 50 kDa), linker shortened from 15 to 5 amino acids; made in E. coli from pET22b(+); Used FITC-labelled in the ex vivo and confocal tests; also called C7 in the diabody format; C7dAbd-FITC
With B1 the Kd was 489 nM.
